Measurements: PMC6919601, “Identification of Plasmodium dipeptidyl aminopeptidase allosteric inhibitors by high throughput screening” (PLoS ONE, 2019)
In all, about 110,000 compounds went through this assay and about 230 (0.21%) showed an effect of 50% or more. This is one part of the list.

These compounds were tested against DPAP1 (Plasmodium falciparum, UniProt Q8IIJ9) (assay: primary screen, percent inhibition; read by cleavage of a fluorogenic dipeptide substrate; higher = more effect of the substance).
Sequence of DPAP1 (Q8IIJ9 whole entry, looked up): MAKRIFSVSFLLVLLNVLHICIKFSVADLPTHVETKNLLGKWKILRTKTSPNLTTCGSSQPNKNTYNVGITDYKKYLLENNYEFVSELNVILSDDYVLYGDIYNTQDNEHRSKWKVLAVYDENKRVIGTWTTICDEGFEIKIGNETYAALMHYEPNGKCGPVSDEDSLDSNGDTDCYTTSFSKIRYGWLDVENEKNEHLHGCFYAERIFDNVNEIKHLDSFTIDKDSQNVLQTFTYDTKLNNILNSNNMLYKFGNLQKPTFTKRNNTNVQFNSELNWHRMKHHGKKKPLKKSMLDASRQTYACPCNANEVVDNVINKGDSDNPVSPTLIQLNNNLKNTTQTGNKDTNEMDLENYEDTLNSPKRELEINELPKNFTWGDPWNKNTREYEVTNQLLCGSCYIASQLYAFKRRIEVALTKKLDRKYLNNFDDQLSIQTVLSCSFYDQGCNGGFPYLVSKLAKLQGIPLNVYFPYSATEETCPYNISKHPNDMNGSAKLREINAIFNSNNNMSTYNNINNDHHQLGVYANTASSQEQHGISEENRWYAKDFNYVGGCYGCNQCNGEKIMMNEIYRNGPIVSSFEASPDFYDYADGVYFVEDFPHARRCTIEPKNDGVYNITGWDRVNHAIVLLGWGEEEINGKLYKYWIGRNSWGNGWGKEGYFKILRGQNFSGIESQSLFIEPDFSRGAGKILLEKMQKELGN
Set-up: species or system P. falciparum D10 trophozoite lysates; single well
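Note: 30 min substrate incubation versus DMSO and 10 µM JCP410 controls.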

SMILES	% Inhibition @ 10 uM
N#Cc1ccc(-c2ccc(/C=C3\NC(=O)N(Cc4ccc(Cl)c(Cl)c4)C3=O)o2)cc1	0.147%
Cc1nc2ccccc2n1CCC(=O)O	-4.78%
CCOc1ccc(NC(=O)CN2C(=O)S/C(=C/c3cccc(O)c3)C2=O)cc1	-3.92%
COc1ccc(/C=C2\NC(=O)C(/C=N/Cc3ccccc3)=C2O)cc1	-8.35%
N#CCNC(=O)[C@@H](Cc1c[nH]c2ccccc12)NC(=O)OCc1ccccc1	-3.34%
COc1ccc2nc3oc(C(=O)N4CCN(C(=O)c5ccco5)CC4)cc3cc2c1	1.9%
c1coc(-c2nnc(C3CCCCC3)o2)c1	-3.32%
CN(C)CCOC(=O)C12CC3CC(c4ccccc4)(C1)CC(c1ccccc1)(C3)C2	-1.54%
N=c1c(C(=O)NCc2cccnc2)cc2c(=O)n3ccccc3nc2n1CCCn1ccnc1	-5.62%
Cc1nn(-c2nc3ccccc3s2)c(N)c1-c1ccc(Cl)cc1	2.16%
COc1ccc(-c2cc(C(F)(F)F)n3nc(C(=O)N4CCOCC4)cc3n2)cc1OC	3.9%
Cc1cc(NC(=O)CSC2=N/C(=C/c3ccc(N(C)C)cc3)C(=O)N2c2ccccc2)no1	4.28%
Clc1ccc(Nc2ncnc3sc4c(c23)CCCC4)cc1Cl	-3.93%
C=CCSc1nnc2sc3ccccc3n12	-5.26%
COCCn1c(-c2ccccc2)cc(C(=O)O)c1C	1.94%
Cc1cccn2c(=O)c(/C=C3\SC(=S)NC3=O)c(NCCCn3ccnc3)nc12	-3.21%
Cc1nc2ncnn2c(O)c1CCC(=O)NC1CCCCCC1	-1.3%
CCN(CC)c1nc2c(S(=O)(=O)c3ccc(Cl)cc3)nnn2c2ccsc12	-4.95%
CC1CCC(N2CCN(c3ccc(Cl)cc3)CC2)C1 (centres unmarked)	-1.41%
Cc1cc2ccccc2n1CCNC(=O)C12CC3CC(CC(C3)C1)C2	2.54%
Cc1ccc2c(c1)-c1c(cnn1CC(=O)NCCN1CCC(Cc3ccccc3)CC1)CO2	5.92%
CCc1nc(SCc2cccnc2)c(C#N)c(C(F)(F)F)c1C	0.775%
N#CCCN1CCn2c3c(c4cc(C5CCCCC5)ccc42)CCCC31 (centres unmarked)	-0.999%
Cc1ccc(C(=O)N2CCN(C/C=C/c3ccccc3)CC2)cc1	-0.636%
Cc1ccc(-c2noc(CSc3nnnn3-c3ccccc3)n2)cc1	1.31%

SMILES	% Inhibition @ 10 uM
CC12CN3CC(C)(CN(C1)C3c1ccccc1)C2 (centres unmarked)	2.51%
COc1ccccc1C(=O)NCCn1cc(SCC(=O)Nc2nnc(C)s2)c2ccccc21	1.08%
CC(=O)N1CCN(Cc2ccc(Cl)cc2)CC1	2.7%
Cc1ccc(OCC(=O)Nc2ccc(S(=O)(=O)Nc3nc(C)cc(C)n3)cc2)cc1	-7.14%
CCOC(=O)N1CCN(c2c(N3CCC(C(N)=O)CC3)c(=O)c2=O)CC1	0.277%
O=S1(=O)C2C=C(Cc3ccccc3)C1CCC2 (centres unmarked)	-6.58%
Cc1nnc2c(NCCCN3CCN(Cc4ccccc4)CC3)nc3ccccc3n12	0.372%
COc1ccc2nc(NC(=O)C3CCN(S(=O)(=O)c4c[nH]cn4)CC3)sc2c1	-4.14%
CCN1CC(C)C(O)(c2ccccc2)CC1C (centres unmarked)	4.7%
Nc1cc(-c2ccc(Br)cc2)nn1Cc1ccccc1	-3.69%
CCSc1nc(-c2ccccc2)cc(-c2cccnc2)c1C#N	-4.12%
Cc1ccc2nc3c(cc(C(=O)NC(C)c4ccccc4)c(=N)n3Cc3cccnc3)c(=O)n2c1 (centres unmarked)	-5.14%
O=C1CCSc2c1cccc2C(=O)NC1CCCCC1	-1.71%
Nc1nc(-c2cccnc2)nn1C(=O)c1ccc(F)cc1	0.628%
CCOC(=O)c1cnc(SCC(=O)NCc2ccccc2)nc1N	0.558%
Cc1nn(CC(=O)N2CC(C)CC(C)C2)c(=O)c2c1sc1ccccc12 (centres unmarked)	1.61%
CCN(CC)CCN(C)C/C=C/c1ccccc1	3.24%
CCN1CCN(C(=O)C2CCN(S(=O)(=O)N3CCC4(CC3)OCCO4)CC2)CC1	-1.21%
CCOC(=O)N1CCN(c2nc3ccc(Cl)cc3n3cnnc23)CC1	4.33%
O=C(COc1ccc(Cl)cc1Cl)Nc1ccc(S(=O)(=O)N2CCCCCC2)cc1	-1.49%
CCn1cc(CCCC(=O)N2CCCC2)c2ccccc21	2.07%
Fc1ccc(CN2CCc3c([nH]c4ccccc34)C2)cc1F	4.57%
CCCCN(C)CCCNC(=O)Cn1ncc2c3ccccc3n(Cc3ccc(F)cc3)c2c1=O	6.46%
Cc1ccc(C(=O)N/C(=C\c2cccs2)C(=O)NCCc2ccccn2)cc1C	0.484%
COCCNc1ncnc2c1nc1n2CCCCC1	1.51%
